Laboratory results taken from the RNAGym collection of RNA variant scans (doi:10.7554/elife.90254).
Read counts are not given, so values of variants with three or more changes are uncertain.

B1: LINE1-full (parent)
chain: UACGUAGGUGGUUUUCCCCUGAUAGUGCUAAGGGGGCCUGGAAGUUUGGACUGGGCAGAGCUCAACACAGCGUGGCAAAGUGGCUGUGGCUAGACUGCCUCUCUGGAUUCCUCGUCACUCAGCAGGGCAUCUCUGAGAGAAAUGCC

Variants of: B1
Test: self-cleavage, relative activity (ratio to wild type); higher = more cleavage; in vitro, sequencing; the parent is a self-cleaving ribozyme
UACGUAGGUGGUUUUCCCCUGAUAGUGCUAAGGGGGCCUGGAAGUUUGGACUGGGCAGCGCUCAACACAGCGCGGCAAAGUAGCUGUGGCUAGACUGCCUCUCUGGAUUCCUCGUCACUCAGCAGGGCAUCUCUGAGGGAAAUGCC [A59C U73C G82A A138G] showed a self-cleavage of 2.18.
Variant UACGUAGGUGGUUUUCCCCUGAUAGUGCUAAGGGGGCCUGGAAGUUUGGACUGGGCAGGGCUCAACUCAGCGUGGCAAAGUGGCUGUGGCUAGACUGCCUCCCUGGAUUCCUCGUCACUCAGCAGGGCAUCUCUGAGAGAAAAGCC [A59G A67U U102C U143A] has a self-cleavage of 0.09.
Variant UACGUAGGUGGUUUUCCCCUGAUAGUGCUAAGGGGGCCUGGAAGUUUGGACUGGGCAAAGCUCAACACAGCGUGGCAAAGUGGCUGUGGCUAGACUGCCUCUCUGGACCCCUCGUCACUCAGCAGGGCAUCUCUGAGAGAAAUGCC [G58A U108C U109C] has a self-cleavage of 0.06.
For UACGUAGGUGGUUUUCCCCUGAUAGUGCUAAGGGGGCCUGGAAGUUUGGACUGGGCAAAGCUCAACACAGCGUGGCAAAGUGGCUGAGGCUAGACUGCCUCUCUGGAUUCCUCGUCACUCAGCAGGGCAUCUCUGAGAGAAAUGUC [G58A U87A C145U], the self-cleavage was 0.05.
UACGUAGGUGGUUUUCCCCUGAUAGUGCUAAGGGGGCCUGGAAGUUUGGACUGGGCAGGGCUCGACACAGCGCGGCAAAGUGUCUGUGGCUAGACUGCCUCUCUGGAUUCCCCGUCACUCAGCAGGGCAUCUCUGAGAGAAAUGCU [A59G A64G U73C G83U U112C C146U] showed a self-cleavage of 0.1.
UACGUAGGUGGUUUUCCCCUGAUAGUGCUAAGGGGGCCUGGAAGUUUGGACUGGGCAGGGCUCAACACGGCGUGGCAAAGUGGCCGUGGCUAGACUGCCUCUCUGGAUUCCUCGUCACUCAGCAGGGCAUCUCUGAGAGAAAUGCC [A59G A69G U85C] showed a self-cleavage of 0.
Variant UACGUAGGUGGUUUUCCCCUGAUAGUGCUAAGGGGGCCUGGAAGUUUGGACUGGGCAGCGCUCAACACAGCGUGGCAAAGUGGCUGUGGCUAGACUGCCUCUCUGGACUCCACGUCACUCAGCAGGGCAUCUCUGAGAGAAAUGCC [A59C U108C U112A] has a self-cleavage of 1.25.
UACGUAGGUGGUUUUCCCCUGAUAGUGCUAAGGGGGCCUGGAAGUUUGGACUGGGCAUAGCUCAACACAGCGAGGCAAGGUGGCUGUGGCUAGACUGCCCCCCUGGAUUCCUCGUCACUCAGCAGGGCAUCUCUGUGAGAAAUGCC [G58U U73A A79G U100C U102C A136U] gave a self-cleavage of 0.04.
In the case of UACGUAGGUGGUUUUCCCCUGAUAGUGCUAAGGGGGCCUGGAAGUUUGGACUGGGCAUAGCUCAACACGGCGUGGCAAAGUGGCUAUGGCUAGACUGCCUCUCUGGACUCCUCGUCACUCAGCAGGGCAUCUCUGAGAGAAAUGCC [G58U A69G G86A U108C], the self-cleavage is reported as 0.03.
UACGUAGGUGGUUUUCCCCUGAUAGUGCUAAGGGGGCCUGGAAGUUUGGACUGGGCACAGCUCAACACAGCGGGGCAAAGUGGCUGUGACUAGACUGCCUCUCUGGACUCCUCGUUACUCAGCAGGGCAUCUCUGAGAGAAAUGCC [G58C U73G G89A U108C C116U] showed a self-cleavage of 0.01.
With UACGUAGGUGGUUUUCCCCUGAUAGUGCUAAGGGGGCCUGGAAGUUUGGACUGGGCAUAGCCCAACACAGCGUGGCAAAGUGGCUGUGGCUAGACUGCCUCUCUGGAUUCCUCGUCACUCAGCGGGGCAUCCCUGAGAGAAAUGCC [G58U U62C A124G U132C] the self-cleavage was 0.03.
For UACGUAGGUGGUUUUCCCCUGAUAGUGCUAAGGGGGCCUGGAAGUUUGGACUGGGCAUAGCUCAACACAGCGUGGCAAAGAGGCUGUGGCUAGACUGCCUCUCUGGAUUCCUCGUCACUCGGCAGGGCAUCUCUGGGAGAAAUGCC [G58U U81A A121G A136G], the self-cleavage was 0.05.
For UACGUAGGUGGUUUUCCCCUGAUAGUGCUAAGGGGGCCUGGAAGUUUGGACUGGGCAGGGCUCGACACAGCGUGGCAAAGUGGCUGUGGCUAGACUGCCUAUCUGGAUUCCUCGUCACUCAGCAGGGCAUCUCAGAGAGAAAUGCC [A59G A64G C101A U134A], the self-cleavage was 0.02.
With UACGUAGGUGGUUUUCCCCUGAUAGUGCUAAGGGGGCCUGGAAGUUUGGACUGGGCAGGGCUCAGCACAGCGUGGCAAAAUGGCUGUGGCUAGACUGCCCCUCUGGAUUCCUCGUCACUCAGCAGGGCAUCUCUGAGAGAAAUGCC [A59G A65G G80A U100C] the self-cleavage was 0.04.
In the case of UACGUAGGUGGUUUUCCCCUGAUAGUGCUAAGGGGGCCUGGAAGUUUGGACUGGGCAUAGCUCAACACAGCGUGGCAAAGUGGCUGUGGCUAGACUGCCACUCUGGAUUCCUCGUCACUCAGCAGGGCGUCUCUGAGAGAAAUGCC [G58U U100A A129G], the self-cleavage is reported as 0.04.
UACGUAGGUGGUUUUCCCCUGAUAGUGCUAAGGGGGCCUGGAAGUUUGGACUGGGCAGGGCUCAACUCAGCGUGGCAAAGUGGCUGUGGCUAGACUGCCUCUCUGGAUUCCUCGCCACUCAGCAGGGCAUCUCUGAGAGAAAUGCC [A59G A67U U115C] showed a self-cleavage of 0.
Variant UACGUAGGUGGUUUUCCCCUGAUAGUGCUAAGGGGGCCUGGAAGUUUGGACUGGGCAGGGCUCAACACGGCGUGGCAAUGUGGCUGUGGCUAGACUGCCUCUCUGGAUUCCUCGUCACCCAGCAGGGCAUCUCUGAGAGAAAUGCC [A59G A69G A79U U119C] has a self-cleavage of 0.
Variant UACGUAGGUGGUUUUCCCCUGAUAGUGCUAAGGGGGCCUGGAAGUUUGGACUGGGCAAAGCUCAACACAGCGUGGCAAAGCGGCUGUGGCUAGACUGCCUCUCUGGAUUCCUCGUCACUCAGCGGGGCAUCUCUGAGAGAAAUGCC [G58A U81C A124G] has a self-cleavage of 0.
UACGUAGGUGGUUUUCCCCUGAUAGUGCUAAGGGGGCCUGGAAGUUUGGACUGGGCAGGGCUCAGCACAGCGUGGCAAAGUGGCUGUGGCUAGACAGCCUCUCUGGAUUCCUCGUCACUCAGCAGGGCAUCUCUGAGGGAAAUGCC [A59G A65G U96A A138G] gave a self-cleavage of 0.
UACGUAGGUGGUUUUCCCCUGAUAGUGCUAAGGGGGCCUGGAAGUUUGGACUGGGCAGGGCUCGGCACAGCGUGGCAAAGUGGCUGUAGCUAGACUGCCUCUCUGGAUUCCUCGUCAAUCAGCAGGGCAUCUCUGAGAGAAAUGCC [A59G A64G A65G G88A C118A] showed a self-cleavage of 0.05.
